Reference: US5770563A, “Heparin- and sulfatide binding peptides from the type I repeats of human thrombospondin and conjugates thereof” (The United States of America as represented by the …, priority 1995, dated 1998)
Part of at least one peptide drawing is inferred or uncertain, most often the ends. Peptide text beside a SMILES is read from it.

Assays:
[1] = target: basic fibroblast growth factor (FGF-2) binding to heparin; test: Inhibition of 125I-bFGF binding to heparin-BSA conjugate; settings: L-forward peptides; read-out: IC50 Inhibitory Activity
In short: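 Heparin-BSA conjugate immobilized in wells; 125I-bFGF added with test peptides and incubated 2 h at 25° C. Bound radioactivity counted after washing and cutting out wells; inhibition of binding derived from counts.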

[2] = target: laminin binding to heparin; test: Inhibition of 125I-laminin binding to heparin-BSA; design: species or system mouse; settings: Table 2, free peptide
AIDS-KS cells = test: AIDS-KS cell chemotaxis, modified Boyden chamber; type: cell-based, human; settings: added in the lower well
Procedure: Directed migration (chemotaxis) and general migration (chemokinesis) of AIDS-KS cells in culture was measured by the modified Boyden chamber assay using fibronectin coated […] Nucleopore filters as previously described. In brief, the AIDS-KS cells, were trypsinized then resuspended in RPMI 1640 containing […] (GIBCO-BRL) and 20% activated lymphocyte conditioned medium. The trypsinized cells were allowed to recover in suspension for 2 hours, then the cells were recovered by centrifugation and resuspended in RPMI 1640 containing 0.1% BS at 5×10^5 cells/ml prior to adding 100 μl to the upper wells in the chemotaxis chamber. Migration to BSA (0.1%) and OSM was performed in the presence of the indicated concentrations of TSP, and TSP peptide-FICOLL conjugates. After 3 hours incubation at 37° C. filters were stained with Diff Quick (Merz-Dade, Dudingen, Switzerland), and the migrated cells in ten high-power fields were counted. The values are triplicate determinations and the bars indicate standard deviations, n=3.

[3] = Binding to heparin agarose column, NaCl gradient elution; settings: applied in tris buffer
[4] = test system: thrombospondin binding to heparin; test: Inhibition of 125I-thrombospondin binding to immobilized heparin-BSA; design: species or system human
In short: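 Solid-phase binding: heparin-BSA (0.2 μg/well) adsorbed 2 h at 37° in Dulbecco's PBS, blocked with tris-BSA. Peptides in 50 mM tris pH 7.8, NaCl, 1 mM CaCl2, 0.025% NaN3, 1% BSA mixed with 125I-thrombospondin (added at 0.2 μg/ml), 3 h at 4°; after saline washes, bound radioactivity counted.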

## N=C(N)NCCC[C@H](NC(=O)[C@@H](N)CCCCN)C(=O)N[C@@H](Cc1ccccc1)C(=O)N[C@@H](CCCCN)C(=O)N[C@@H](CCC(N)=O)C(=O)N[C@@H](CC(=O)O)C(=O)NCC(=O)NCC(=O)N[C@@H](Cc1c[nH]c2ccccc12)C(=O)N[C@@H](CO)C(=O)N[C@@H](Cc1c[nH]cn1)C(=O)N[C@@H](Cc1c[nH]c2ccccc12)C(=O)N[C@@H](CO)C(=O)N1CCC[C@H]1C(=O)N[C@@H](Cc1c[nH]c2ccccc12)C(=O)N[C@@H](CO)C(=O)N[C@@H](CO)C(=O)O [Peptide 246, KRFKQDGGWSHWSPWSS] (H-KRFKQDGGWSHWSPWSS-OH)
[1]
  IC50: 3.2 µM
[2]
  IC50: 3 µM
AIDS-KS cells
  stimulation of AIDS-KS cell motility: induced increased motility
[3]
  binding to heparin affinity column: quantitatively bound
[4]; FICOLL conjugate versus free peptide
  fold increase of activity following conjugation to the carrier: approximately 10 fold
[4]; Table 1, free peptide, read-out: IC50 Heparin Binding, inhibition of 125I-thrombospondin binding
  IC50: 2.1 µM
[4]; inhibiting thrombospondin or laminin binding to heparin
  fold enhancement of activity by the flanking BBXB motif: approximately 3 fold
